The record followed here is the antibiotic and cytotoxicity screens of Wong et al. (2023).

Each structure is given as a SMILES string. The list shows a part of the results.

The assay has as its system S. aureus RN4220. As to the kind of experiment: growth inhibition call (relative growth <= 0.2). The conditions noted are these: 50 µM.
With `O=C(C[C@@H]1CC[C@@H]2[C@H](COC[C@H](O)CN2C(=O)c2ccccn2)O1)NC1CCC1`, the growth inhibition call is “inactive”.

Turning to `Oc1cc(O)c2c(c1)OC(c1cc(O)c(O)c(O)c1)C(O)C2c1c(O)cc(O)c2c1OC(c1cc(O)c(O)c(O)c1)C(O)C2c1c(O)cc(O)c2c1OC(c1cc(O)c(O)c(O)c1)C(O)C2` (stereo unspecified), the growth inhibition call was “inactive”. Under `C[C@H]1CN([C@@H](C)CO)C(=O)c2cc(NS(=O)(=O)c3ccc(Cl)cc3)ccc2O[C@H]1CN(C)Cc1ccc(-c2ccccc2)cc1` stands “inactive”. Turning to `C[C@@H]1CN([C@@H](C)CO)C(=O)c2cc(C#Cc3ccccc3F)cnc2O[C@@H]1CN(C)S(=O)(=O)c1ccccc1`, the growth inhibition call is “inactive”. For `O=C(NO)c1ccc(C(=O)N/N=C/c2ccc(B(O)O)cc2)cc1`, the growth inhibition call is “inactive”. In the case of `C[C@@H]1CCCCO[C@H](CN(C)S(=O)(=O)c2cccs2)[C@H](C)CN([C@@H](C)CO)C(=O)c2cc(NC(=O)CCC(F)(F)F)ccc2O1` it was “inactive”; in that of `CN1CCN(C(=O)C[C@H]2CC[C@H]3[C@@H](COC[C@@H](O)CN3C(=O)C3CCOCC3)O2)CC1`, “inactive”. Take `O=C(CCO[C@@H]1O[C@H](CO)[C@@H](O)[C@H](O)[C@H]1O)c1ccc(O)cc1`: the growth inhibition call was “inactive”. As to `CC(=O)/N=c1\sc(S(N)(=O)=O)nn1C`, the growth inhibition call is “inactive”.

With `C[C@H](CO)N1C[C@H](C)[C@H](CN(C)C(=O)c2ccccc2)Oc2cc(C#C[C@@H](C)O)ccc2S1(=O)=O`, the growth inhibition call is “inactive”. For the compound `N[C@@H](Cc1c[nH]c2ccc(O)cc12)C(=O)O`, the growth inhibition call is “inactive”. On to `C[C@@H]1CCCCO[C@H](CN(C)C(=O)Nc2cccc3ccccc23)[C@@H](C)CN([C@H](C)CO)C(=O)c2cc(N(C)C)ccc2O1`, for which the growth inhibition call was “inactive”. In the case of `C(=N\C1CCCCCCCCCCC1)/c1ccco1` it was “inactive”.

For `C[C@@H]1CN([C@H](C)CO)C(=O)c2cccc(NS(=O)(=O)c3ccccc3)c2O[C@@H]1CN(C)Cc1ccncc1`, the growth inhibition call is “inactive”.

Turning to `CC(C)(C)c1cc(CN)n[nH]1`, the growth inhibition call is “inactive”. On to `Cc1noc(C)c1S(=O)(=O)Nc1ccc2c(c1)CC(=O)N([C@@H](C)CO)C[C@@H](C)[C@H](CN(C)C(=O)Nc1ccc3c(c1)OCO3)O2`, for which the growth inhibition call was “inactive”.
